In PubChem BioAssay AID1745853 (National Center for Advancing Translational Sciences (NCATS), 2022):
Several values for one entry are separate records, joined by “and”; a condition that tells them apart may be missing. Identical values can stand only once. Some of the results follow. Further columns of the screen follow, without active or inactive calls.

Tests used:
Assay in all cases: Primary Screen for Target Class Profiling of Small Molecule Inhibitors of Methyltransferases
[1] = target: Glycine N-methyltransferase (Homo sapiens) (UniProt Q14749); details: purified enzyme, MTase-Glo SAH luminescence; measured here: GNMT inhibition; at 40 µM; stronger effect = lower value
Procedure, shortened: (§1)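 Each enzyme was reacted with SAM and its substrate, with compounds tested once at 40 uM; SAH formed was read by MTase-Glo luminescence.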

[2] = target: Guanidinoacetate N-methyltransferase (Homo sapiens) (UniProt Q14353); details: purified enzyme, MTase-Glo SAH luminescence; measured here: GAMT inhibition; at 40 µM; stronger effect = lower value
Procedure, shortened: as §1

[3] = target: Histamine N-methyltransferase (Homo sapiens) (UniProt P50135); details: purified enzyme, MTase-Glo SAH luminescence; measured here: HNMT inhibition; at 40 µM; stronger effect = lower value
Procedure, shortened: as §1

[4] = target: Nicotinamide N-methyltransferase (Homo sapiens) (UniProt P40261); details: purified enzyme, MTase-Glo SAH luminescence; measured here: NNMT inhibition; at 40 µM; stronger effect = lower value
Procedure, shortened: as §1

[5] = target: Phenylethanolamine N-methyltransferase (Homo sapiens) (UniProt P11086); details: purified enzyme, MTase-Glo SAH luminescence; measured here: PNMT inhibition; at 40 µM; stronger effect = lower value
Procedure, shortened: as §1
% is set by controls: 0 for no effect and ±100 for the full control effect.

| Structure (SMILES) | activity change, negative = inhibition [1] | activity change, negative = inhibition [2] | activity change, negative = inhibition [3] | activity change, negative = inhibition [4] | activity change, negative = inhibition [5] |
| --- | --- | --- | --- | --- | --- |
| CCCOc1ccccc1-c1nc2n[nH]nc2c(=O)[nH]1 | -7.58% | 10.4% | 0.284% | -2.85% | 6.16% |
| Cc1ccc(C(=O)NCCn2c(C)cnc2C)s1 | -6.79% | -9.71% | -16.2% | -12.8% | -4.1% |
| NS(=O)(=O)c1ccc(-n2nc(C(F)(F)F)cc2-c2ccc(Cl)cc2)cc1 | 3.94% and 0.34% | 10.2% and 6.87% | 9.16% and 10.7% | -15.6% and -15.8% | -3.86% and 7.84% |
| O=c1[nH]c2ccc(S(=O)(=O)NCc3cccnc3)cc2[nH]1 | -4.54% | 0% | 2.19% | 7.14% | -6.82% |
| CCC(C(=O)NCCc1ccccc1)n1ccc2cc(S(=O)(=O)N3CCCCC3)ccc21 (stereo not given) | 2.75% | 5.88% | 1.25% | 0.158% | 1.96% |
| COc1ccccc1[C@H](c1cccc2ccccc12)[C@@](C)(C#N)C(=O)N1CCC(c2cccc(C(F)(F)F)c2)CC1 | 1.06% | -2.31% | 1.57% | -37.5% | -5.97% |
| COc1cccc(C(=O)NCCN2CCN(c3ccc(Cl)cc3)CC2)c1 | 1.84% | 11.4% | 5.26% | 0.482% | 12.8% |
| COc1nc2nc(CCc3ccccc3)n(C)c2cc1-c1ccnn1C | -42.5% | -3.52% | -17.3% | -25% | -26.1% |
| CCc1ccc(N2C(=O)c3cc(C(=O)OC)nn3CC2(C)C(=O)NC2CCCCC2)cc1 (stereo not given) | 6.84% | 1.26% | 12.3% | 11% | 9.69% |
| Cc1ccc(N2C(=O)c3cc4ccccc4n3CC2(C)C(=O)NC2CCCC2)c(C)c1 (stereo not given) | 14.6% | 3.73% | -2.54% | -1.17% | -3.35% |
| COc1ccccc1CNC(=O)C1c2c(n(C)c3ccccc23)SCC(=O)N1CCc1ccc(Cl)cc1 (stereo not given) | 8.63% | 0.043% | 2.75% | 0.849% | 3.67% |
| C=CC1(C)CC(O)C2(CCC3C(C)(C(=O)O)CCCC3(C)C2=O)C1 (stereo not given) | -1.17% | -9.69% | 1.74% | -18% | -0.991% |
| Cc1cnn(-c2ccccc2)c1NC(=O)COCc1ccccc1 | 1.55% | 3.45% | -1.04% | -14.4% | -8% |
| CC(C)CNCc1ccc(-c2ccccc2S(=O)(=O)N2CCCC2)cc1 | -0.34% | 0.199% | -32.9% | -13.8% | -5.13% |
| CNC(=O)[C@@H]1CN(C(=O)Cc2c[nH]c3ccccc23)C[C@H]1COC | 0.092% | -0.769% | 3.52% | 1.75% | 4.37% |
| CCCn1c(=O)c2ccc(Cl)cc2n2c(=O)n(CC(=O)Nc3cccc(F)c3)nc12 | -2.63% | -1.46% | 11.7% | -3.69% | -2.64% |
| CCCn1c(=O)c2cc(F)ccc2n2c(SCc3c(F)cccc3Cl)nnc12 | -36.8% | 0% | 2.57% | -14.4% | 2.07% |
| CCOC(=O)c1cc2n(n1)CC(C)(C(=O)NCc1ccc(C)cc1)N(Cc1cccc(OC)c1)C2=O (stereo not given) | -2.7% | 6.89% | 2.86% | -4.22% | -0.25% |
| COC(=O)c1cc(COc2cc3oc(=O)cc(-c4ccccc4)c3cc2Cl)c(C)o1 | 2.27% | 1.28% | 1.23% | -1.73% | -1.55% |

| Structure (SMILES) | activity change, negative = inhibition [1] | activity change, negative = inhibition [2] | activity change, negative = inhibition [3] | activity change, negative = inhibition [4] | activity change, negative = inhibition [5] |
| --- | --- | --- | --- | --- | --- |
| COc1ccccc1CNS(=O)(=O)c1ccc2c(c1)n(C)c(=O)n2C | -6.18% | -0.78% | -4.02% | -7.92% | -9.56% |
| O=C(c1ccc(F)c(Cl)c1)N1C[C@@H](CO)[C@H](c2ccccn2)C1 | -1.23% | 0.9% | 0.364% | 2.88% | -0.215% |
| C/C1=C\CCC2=CC(OC2=O)C(C)(C)/C=C/C1=O (stereo not given) | 4.06% | -6.56% | 8.73% | -9.53% | 0.069% |
| CN(c1ncccc1CNC(=O)C1CCOCC1)C1CCCCC1 | 0.171% | 0.771% | 0.557% | -3.28% | 0.896% |
| CC(=O)[C@@H]1CC[C@]2(C(=O)O)CC[C@]3(C)C(CCC4[C@@]5(C)CC[C@H](O)C(C)(C)C5CC[C@]43C)C12 (stereo not given in full) | 4.16% | 5.34% | 9.14% | -7.21% | 3.26% |
| Cc1ncc(C(=O)N[C@H]2CC[C@H]2NC2CCCC2)c(-c2ccccc2)n1 | -2.45% | -0.746% | -1.06% | -6.68% | -12.4% |
| CCCn1c(=O)c2ccccc2n2c(SCC(=O)N3CCN(c4ccccc4F)CC3)nnc12 | -0.541% | 3.89% | 1.8% | -4.18% | -0.208% |
| COC(=O)C1=CO[C@@H](O[C@@H]2O[C@H](CO)[C@@H](O)[C@H](O)[C@H]2O)[C@H]2[C@@H]1C=C[C@]21C=C([C@H](C)OC(=O)/C=C/c2ccc(O[C@@H]3O[C@H](CO)[C@@H](O)[C@H](O)[C@H]3O)cc2)C(=O)O1 | 2.95% | 3.58% | 10.9% | -9.27% | 6.33% |
| CC(C)c1ccccc1NC(=O)N1CCOC(C(F)(F)F)C1 (stereo not given) | -0.227% | -1.81% | 0.707% | 2.76% | 2.6% |
| CC(C)n1c(=O)c2ccc(C(=O)NC3CCCCC3)cc2n2c(=O)n(Cc3ccccc3Cl)nc12 | -0.53% | 0% | 3% | 0.367% | 3.97% |
| CCOCCCNC(=O)C1(C)Cn2c(ccc2-c2ccco2)C(=O)N1c1ccc(C)c(C)c1 (stereo not given) | -7.88% | 3.96% | 0.588% | 4.99% | -0.398% |
| COc1ccccc1CNC(=O)C1(C)Cn2nc(-c3ccccc3)cc2C(=O)N1c1cc(C)cc(C)c1 (stereo not given) | 2.27% | 0.774% | -1.47% | 6.97% | -1.78% |
| CCOc1ccc(CNC(=O)c2ncn3c2C(=O)N(C2CC2)C(C)(C(=O)NCc2ccc(F)cc2)C3)cc1 (stereo not given) | -1.23% | 2.94% | 10.3% | 2.66% | 9.99% |
| O=c1cc(N2CCOCC2)oc2c(-c3ccccc3O)nccc12 | -0.379% | -1.21% | -1.77% | -11.1% | -13.8% |
| COc1ccc(-c2cc3n(n2)CC(C)(C(=O)NC2CCCCC2)N(Cc2ccco2)C3=O)cc1 (stereo not given) | -8.25% | -1.42% | -2.83% | -6.27% | -3.38% |
| CCCN1CC2(CCN(C)CC2)CC1C(=O)N(C)Cc1nnc(C)o1 (stereo not given) | -6.53% | -9.04% | -3.83% | -5.91% | 11% |
| Cc1ccc(C(=O)Cn2nc3n(CCc4ccccc4)c(=O)c4ccccc4n3c2=O)c(C)c1 | 1.05% | 3.76% | -1.62% | -1.02% | -0.784% |
| CN(C)CC(c1ccc(O)cc1)C1(O)CCCCC1 (stereo not given) | -0.691% | 1.24% | 9.28% | -13.6% | 4% |
| CC(C)CCn1c(=O)c2ccccc2n2c(CCC(=O)NCc3ccc4c(c3)OCO4)nnc12 | -6.37% | 3.68% | -0.34% | -10.3% | -3.06% |
